Results published in PubChem BioAssay AID686978 (National Center for Advancing Translational Sciences (NCATS), 2013).
Values joined by “and” are separate entries in the source; they are usually repeats but may differ in a detail not shown here. Equal entries are not always repeated. Out of some 420,000 compounds screened, about 64,000 (15%) were called active. The shares of active, inactive and inconclusive entries below differ from those in the screen. Calls come from the whole dose curve; as a rule, active = well fitted inhibition curve with a large enough effect; inconclusive = small, poorly fitted or top-dose-only effect; inactive = flat fitted curve, though single readings scatter. Potencies beside an inconclusive call are fits to weak or partial responses and may not hold up.

Test: qHTS for Inhibitors of human tyrosyl-DNA phosphodiesterase 1 (TDP1): qHTS in cells in absence of CPT; note: nearly all actives have a fitted effect of over 55% in size
Settings: DT40 Tdp1-/- hTDP1 cells, no CPT, ATP luminescence, 48 h; activity change, negative = growth inhibition: at 46.2 µM (top of the series)
Summary of the method: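 Chicken DT40 Tdp1-/- cells stably complemented with human TDP1 were seeded at 400 cells/well with DMSO in place of 20 nM camptothecin. After compound pinning, cells grew at least 48 hr at 37 °C; viability read by CellTiter-Glo luminescence.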
% is set by controls: 0 for no effect and ±100 for the full control effect; potency is the fitted concentration of half-maximal effect; tags give direction and shape of the fitted curve.

Structure (SMILES)	Potency	activity change, negative = growth inhibition
C=CCOn1c(=O)c(-c2cccs2)[n+]([O-])c2ccccc21	inconclusive: 18.4 µM [inhibitor, single point]	–
Cc1ccc(NC2CCCN(C(=O)c3ccc(F)cc3)C2)cc1C (stereo unspecified)	inconclusive: 29.1 µM [inhibitor, single point]	–
CCOc1ccc(NC(=O)CCC(=O)N2CC(C)Oc3ccc(C)cc32)cc1 (stereo unspecified)	inconclusive: 18.4 µM [inhibitor, single point]	–
COc1ccc(CN2C(=O)c3oc4ccc(F)cc4c(=O)c3C2c2ccc(O)cc2)cc1 (stereo unspecified)	inactive	–
CC1(Cc2ccc(C(F)(F)F)o2)C(=O)Nc2ccc(-c3cccc(C(F)(F)F)c3)cc21 (stereo unspecified)	active: 11.6 µM	–
C=CCn1c(SCC(=O)NC2CC2)nnc1-c1cccc(OC)c1	inactive	–
Fc1ccc(/C=C\c2nccc3c2[nH]c2ccccc23)cc1	inconclusive: 29.1 µM [inhibitor, single point]	–
COc1ccc(C(=O)NNC(=O)C(=O)NCc2ccccc2)cc1	–	inconclusive: -31.2% [inhibitor]
O=C(O)CS(=O)(=O)CC(=O)NCc1cccc(C(F)(F)F)c1	inactive	–
O=c1oc2ccccc2c(NC2CCCCC2)c1NS(=O)(=O)c1ccc(Br)cc1	inconclusive: 18.4 µM [inhibitor, single point]	–
Cc1nc(CNS(=O)(=O)c2ccc(F)cc2)cs1	inactive	–
COc1ccc([N+](=O)[O-])cc1N(CC(=O)NCCCOC(C)C)S(C)(=O)=O	inactive	–
COc1cccc(-n2c(SCC(=O)c3c[nH]c4ccccc34)nc3ccccc3c2=O)c1	inconclusive: 23.1 µM [inhibitor, single point]	–
COc1ccc2[nH]c3c(=O)n(Cc4ccc(C(=O)N5CCCC5)cc4)c(=S)[nH]c3c2c1	inconclusive: 29.1 µM [inhibitor, single point]	–
CC(C(=O)O)N1C(=O)/C(=C/C=C/c2ccco2)SC1=S (stereo unspecified)	inconclusive: 25.9 µM [inhibitor, single point]	–
COc1ccccc1NS(=O)(=O)c1cccc(C(=O)N2CCCCCC2)c1	inconclusive: 18.4 µM [inhibitor, single point]	–
Cc1cccc(-c2onc3ccc(C(=O)/C=C/N(C)C)cc23)c1	active: 18.4 µM	–
O=C1Nc2c(Br)cccc2C1=O	active: 11.6 µM	–
CCCCSc1nc(C)cc(SCC(=O)N/N=C/c2ccccc2)n1	inconclusive: 29.1 µM [inhibitor, single point]	–
COCOCCn1cc(CN2CCS(=O)(=O)N(Cc3ccc(-c4ccc(Cl)cc4)cc3)C(C(C)C)C2=O)nn1 (stereo unspecified)	active: 20.6 µM	–
Cc1cc2c(cc1S(=O)(=O)Nc1cccc(C)c1C)n(C)c(=O)c(=O)n2C	inactive	–
COc1ccc(-n2c(C)nc3cc(C(=O)NCCN4CCOCC4)ccc32)cc1	inactive	–
Cn1cc(CN2CCCC(C(=O)c3nccn3C)C2)c(-c2cccc(Cl)c2)n1 (stereo unspecified)	inconclusive: 23.1 µM [inhibitor, single point]	–
O=C(/C=C/c1ccccc1)NCCO	inconclusive: 33.5 µM [inhibitor, single point]	–

Structure (SMILES)	Potency	activity change, negative = growth inhibition
Cc1ccc(C)c(OCC(=O)Nc2cc(NC(=O)COc3cc(C)ccc3C)cc(C(=O)O)c2)c1	inconclusive: 25.9 µM [inhibitor, single point]	–
COc1ccccc1C(=O)Nc1ccc(C)cc1C(=O)c1ccccc1	inactive	–
COc1ccc(-c2ccccc2NC(=O)C2CCCN(Cc3ccco3)C2)cc1 (stereo unspecified)	–	inconclusive: -33.3% [inhibitor]
COc1cc(Cl)cc(C2NC(=O)NC(C)=C2C(=O)NCc2ccccc2)c1O (stereo unspecified)	inactive	–
CCCCn1cc2c(c1-c1ccccc1Br)c(=O)n(C)c(=O)n2C	active: 16.4 µM	–
NC(N)=NC(N)=Nc1cccc2ccccc12	inconclusive: 14.6 µM [inhibitor, partial curve, poor fit]	–
COC(=O)C1=CN(CC2CCCO2)C=C(C(=O)OC)C1c1cccc(O)c1 (stereo unspecified)	inactive	–
Cc1cc2c(cc1C)N(C(=O)CSC1=NCCS1)C(C)(C)c1ssc(=S)c1-2	inconclusive: 29.1 µM [inhibitor, single point]	–
C/C(=N\Nc1ccccn1)c1ccc(C(C)C)cc1	inconclusive: 14.6 µM [inhibitor, partial curve]	–
CN(C)c1ccc(/C=C/C(=O)c2ccc3c(c2)OCO3)cc1	active: 16.4 µM	–
Cc1ccc(S(=O)(=O)NCc2nc(-c3ccccc3)no2)cc1	inactive	–
O=C(COc1ccccc1)n1nc(-c2ccc(Cl)cc2)nc1NCc1ccco1	–	inconclusive: -35.4% [inhibitor]
CNS(=O)(=O)c1cccc(C(=O)NCC(c2cccs2)N2CCOCC2)c1 (stereo unspecified)	inactive	–
CCN(CC)S(=O)(=O)c1ccc(Cl)c(NC(=O)CSc2nnc(-c3cccs3)o2)c1	inconclusive: 29.1 µM [inhibitor, single point]	–
O=C(NNS(=O)(=O)c1ccc(C(F)(F)F)cc1)c1cnn(-c2ccccc2)c1C(F)(F)F	inactive	–
N#C/C(=C\c1ccc(O)c(O)c1)C(=O)NCc1ccccc1	inconclusive: 33.5 µM [inhibitor, single point] and inconclusive: 29.1 µM [inhibitor, single point] and inconclusive: 35.5 µM [inhibitor, single point]	–
COc1ccc(N(CC(=O)N2CCN(c3cccc(C)c3)C(C)C2)S(=O)(=O)c2c(C)n[nH]c2C)cc1 (stereo unspecified)	inconclusive: 18.4 µM [inhibitor, single point]	–
O=C(CNC(=O)c1ccco1)N/N=C/c1ccc(C(=O)O)cc1	inactive	–
CCC1(c2ccccc2)NC(=O)N(CC(=O)Nc2ccc(N3CCCC3)cc2C)C1=O (stereo unspecified)	inactive	–
O=c1c(-c2cc(F)cc(F)c2)nc2cnc(N3CCOCC3)nc2n1C[C@H]1CCCO1	inactive	–
CCOC(=O)C(Cc1ccccc1)C(=O)NCc1cccnc1 (stereo unspecified)	inactive	–
O=C(CSc1nc2ccc(Cl)cc2[nH]1)c1cccs1	inconclusive: 14.6 µM [inhibitor, single point]	–
O=C(Nc1cccnc1)c1ccc(S(=O)(=O)c2ccccc2)cc1	inactive	–
NC(=O)CC[C@H](NC(=O)c1ccc(F)cc1)C(=O)OCC(=O)NCc1ccc(F)cc1	inconclusive: 29.1 µM [inhibitor, single point]	–

Structure (SMILES)	Potency	activity change, negative = growth inhibition
COc1ccc(NC(=O)N2CCC(n3nnc4cc(C)ccc43)CC2)cc1	inconclusive: 25.9 µM [inhibitor, single point]	–
O=C1ON=C(c2ccccc2)/C1=C/c1ccc(O)cc1	inconclusive: 23.1 µM [inhibitor, single point]	–
CC(=O)Nc1ccc(NC(=O)c2cc(-c3cc(F)ccc3OCC3CCCO3)n[nH]2)cc1 (stereo unspecified)	inconclusive: 10.3 µM [inhibitor, partial curve, poor fit]	–
Cc1ccc(S(=O)(=O)N2CCCCC2)cc1NC(=O)c1cc2ccccc2o1	inconclusive: 20.6 µM [inhibitor, partial curve]	–
Cc1sc2nc(SCC(=O)Nc3ccccc3F)[nH]c(=O)c2c1C	inactive	–
CC(C)c1ccc(N2C(=O)CC(Sc3ncn[nH]3)C2=O)cc1 (stereo unspecified)	active: 4.61 µM	–
Cc1cc(N(C)Cc2ccccc2)nc2cc(O)ccc12	inconclusive: 29.1 µM [inhibitor, single point]	–
CCOC(=O)c1sc2nc(C)nc(NCCc3ccc(S(N)(=O)=O)cc3)c2c1C	inactive	–
CCOC(=O)C1CCN(S(=O)(=O)c2cc3c4c(c2)CC(=O)N4CCC3)CC1	inconclusive: 29.1 µM [inhibitor, single point]	–
Cc1csc(NC(C)c2nc3cc(C(F)(F)F)ccc3n2CCCO)n1 (stereo unspecified)	inconclusive: 6.51 µM [inhibitor, partial curve]	–
CC(=O)c1sc(-c2ccccc2)cc1NS(=O)(=O)c1ccc(C)cc1	inconclusive: 29.1 µM [inhibitor, single point]	–
CCOC(=O)C1=C(N)OC2=C(C(=O)CC(C)(C)C2)C1c1cccs1 (stereo unspecified)	inconclusive: 11.6 µM [inhibitor, partial curve, poor fit]	–
O=C(O)C(O)C(O)c1nc2ccccc2[nH]1 (stereo unspecified)	inactive	–
O=C1C(c2cc(=O)c3ccccc3[nH]2)=C(O)c2ccccc21	inconclusive: 29.1 µM [inhibitor, single point]	–
C=CCn1c(-c2csc3c2CCC(C)C3)n[nH]c1=S (stereo unspecified)	inconclusive: 16.4 µM [inhibitor, partial curve]	–
N/C(=N\c1nc2ccccc2o1)NC(=O)c1ccccc1Br	active: 16.4 µM	–
CCCc1cc(=O)[nH]c(SCC(=O)Nc2ccc(C(=O)Nc3ccccc3OC)cc2)n1	inconclusive: 18.4 µM [inhibitor, partial curve]	–
O=C1NC(=Nc2ccc3ccccc3c2)S/C1=C/c1ccco1	inconclusive: 18.4 µM [inhibitor, single point]	–
O=C(NCC(c1cccnc1)N1CCN(c2ccccc2F)CC1)c1ccccc1 (stereo unspecified)	inconclusive: 18.4 µM [inhibitor, single point]	–
CC1=C(C(=O)N(C(C)C)C(C)C)CC(CC(=O)NCCc2ccccn2)C(=O)N1Cc1ccc(F)cc1 (stereo unspecified)	inactive	–
Cc1ccc(C)c(NC(=O)CSc2nc3[nH]ncc3c(=O)[nH]2)c1	inconclusive: 29.1 µM [inhibitor, single point]	–
CSc1ccccc1NC(=O)COC(=O)Cn1cc(C(F)(F)F)ccc1=O	inconclusive: 23.1 µM [inhibitor, single point]	–
Cc1ccc(NC(=O)CN(C)Cc2c(O)ccc3ccccc23)cc1	inconclusive: 14.6 µM [inhibitor, partial curve]	–
